# Measurements reported in the supplement of paper PMC8728848.
# The list shows a part of the results.
# B1: LICBM33A (Lactococcus lactis), Q9CE94 (protein)
# chain: MKKLLTGLLVAAGLLSVSLLIKTDTVSAHGYVQSPPARGYQGQLDSQSLGWTAAFNIYGNVISNPQSLEAPKGFPECGPADGRIASANGGLGQIGDFVLDNQTSSRWKKTSISTGSNIFTWKYTAPHKTTKWHYYMTKTGWDQNAPLKHSELELIGTINHDGSPATNNLSHTINIPTDRSGYHIVLAVWDVADTSNAFYNVIDINVNNKNASSQVFGPFL
# Legend:
# Test in all cases: glycan array binding signal (z-score within array); higher = stronger binding
# Conditions in all cases: glycan notation: IUPAC condensed, linker removed
# [1] = molecular target: Fuc(a1-2)Gal(b1-4)GlcNAc(b1-3)Gal(b1-4)GlcNAc(b1-2)Man(a1-3)[Fuc(a1-2)Gal(b1-4)GlcNAc(b1-3)Gal(b1-4)GlcNAc(b1-2)Man(a1-6)]Man(b1-4)GlcNAc(b1-4)GlcNAc
# Outline: (§1)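 Glycan array data were curated from 3228 arrays in the Consortium for Functional Glycomics database and kept only where the protein sequence was available. Glycan names were converted to IUPAC-condensed notation, and columns mapping to the same glycan were averaged. The binding signal is a within-array Z-score, averaged across arrays of the same protein sequence at different concentrations or buffers and across linkers. Negative Z-scores can be read as non-binding.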
# [2] = molecular target: Fuc(a1-2)Gal(b1-4)GlcNAc(b1-3)Gal(b1-4)GlcNAc(b1-3)Gal(b1-4)GlcNAc
# Outline: as §1
# [3] = molecular target: Fuc(a1-2)Gal(b1-4)GlcNAc(b1-3)GalNAc
# Outline: as §1
# [4] = molecular target: Fuc(a1-2)Gal(b1-4)GlcNAc(b1-3)[Fuc(a1-2)Gal(b1-4)GlcNAc(b1-6)]GalNAc
# Outline: as §1
# [5] = molecular target: Fuc(a1-2)Gal(b1-4)GlcNAc(b1-3)[Fuc(a1-3)[Gal(b1-4)]GlcNAc(b1-6)]Gal(b1-4)Glc
# Outline: as §1
# [6] = molecular target: Fuc(a1-2)Gal(b1-4)GlcNAc(b1-6)GalNAc
# Outline: as §1
# [7] = molecular target: Fuc(a1-2)Gal(b1-4)GlcNAc6S
# Outline: as §1
# [8] = molecular target: Fuc(a1-2)Gal(b1-4)[Fuc(a1-3)]GlcNAc
# Outline: as §1
# [9] = molecular target: Fuc(a1-2)Gal(b1-4)[Fuc(a1-3)]GlcNAc(b1-2)Man(a1-3)[Fuc(a1-2)Gal(b1-4)[Fuc(a1-3)]GlcNAc(b1-2)Man(a1-6)]Man(b1-4)GlcNAc(b1-4)[Fuc(a1-6)]GlcNAc
# Outline: as §1
# [10] = molecular target: Fuc(a1-2)Gal(b1-4)[Fuc(a1-3)]GlcNAc(b1-2)[Fuc(a1-2)Gal(b1-4)[Fuc(a1-3)]GlcNAc(b1-4)]Man(a1-3)[Fuc(a1-2)Gal(b1-4)[Fuc(a1-3)]GlcNAc(b1-2)Man(a1-6)]Man(b1-4)GlcNAc(b1-4)GlcNAc
# Outline: as §1
# [11] = molecular target: Fuc(a1-2)Gal(b1-4)[Fuc(a1-3)]GlcNAc(b1-3)Gal(b1-4)[Fuc(a1-3)]GlcNAc
# Outline: as §1
# [12] = molecular target: Fuc(a1-2)Gal(b1-4)[Fuc(a1-3)]GlcNAc(b1-3)Gal(b1-4)[Fuc(a1-3)]GlcNAc(b1-3)Gal(b1-4)[Fuc(a1-3)]GlcNAc
# Outline: as §1
# [13] = molecular target: Fuc(a1-2)Gal(b1-4)[Fuc(a1-3)]GlcNAc(b1-3)GalNAc
# Outline: as §1
# [14] = molecular target: Fuc(a1-2)Gal(b1-4)[Fuc(a1-3)]GlcNAc(b1-3)[Neu5Ac(a2-6)Gal(b1-4)GlcNAc(b1-6)]Gal(b1-4)Glc
# Outline: as §1
# [15] = molecular target: Fuc(a1-2)Gal3S(b1-4)GlcNAc
# Outline: as §1
# [16] = molecular target: Fuc(a1-2)Gal6S(b1-3)GlcNAc
# Outline: as §1
# [17] = molecular target: Fuc(a1-2)Gal6S(b1-3)GlcNAc6S
# Outline: as §1
# Fuc(a1-2)Gal6S(b1-4)Glc = molecular target: Fuc(a1-2)Gal6S(b1-4)Glc
# Outline: as §1
# [18] = molecular target: Fuc(a1-2)Gal6S(b1-4)Glc6S
# Outline: as §1
# Fuc(a1-2)[Gal(a1-3)]Gal = molecular target: Fuc(a1-2)[Gal(a1-3)]Gal
# Outline: as §1
# [19] = molecular target: Fuc(a1-2)[Gal(a1-3)]Gal(b1-3)GalNAc
# Outline: as §1
# [20] = molecular target: Fuc(a1-2)[Gal(a1-3)]Gal(b1-3)GalNAc(b1-3)Gal(a1-4)Gal(b1-4)Glc
# Outline: as §1
# [21] = molecular target: Fuc(a1-2)[Gal(a1-3)]Gal(b1-3)GlcNAc
# Outline: as §1
# [22] = molecular target: Fuc(a1-2)[Gal(a1-3)]Gal(b1-3)GlcNAc(b1-2)Man(a1-3)[Fuc(a1-2)[Gal(a1-3)]Gal(b1-3)GlcNAc(b1-2)Man(a1-6)]Man(b1-4)GlcNAc(b1-4)GlcNAc
# Outline: as §1
# [23] = molecular target: Fuc(a1-2)[Gal(a1-3)]Gal(b1-3)GlcNAc(b1-2)Man(a1-3)[Fuc(a1-2)[Gal(a1-3)]Gal(b1-3)GlcNAc(b1-2)Man(a1-6)]Man(b1-4)GlcNAc(b1-4)[Fuc(a1-6)]GlcNAc
# Outline: as §1
# [24] = molecular target: Fuc(a1-2)[Gal(a1-3)]Gal(b1-3)GlcNAc(b1-3)GalNAc
# Outline: as §1
# [25] = molecular target: Fuc(a1-2)[Gal(a1-3)]Gal(b1-3)GlcNAc(b1-6)GalNAc
# Outline: as §1
# [26] = molecular target: Fuc(a1-2)[Gal(a1-3)]Gal(b1-4)Glc
# Outline: as §1
# [27] = molecular target: Fuc(a1-2)[Gal(a1-3)]Gal(b1-4)GlcNAc
# Outline: as §1
# [28] = molecular target: Fuc(a1-2)[Gal(a1-3)]Gal(b1-4)GlcNAc(b1-2)Man
# Outline: as §1
binder,measurement,setting,value
B1,glycan array binding signal (z-score),[1],-0.145
same,glycan array binding signal (z-score),[2],-0.698
same,glycan array binding signal (z-score),[3],-0.457
same,glycan array binding signal (z-score),[4],1.2
same,glycan array binding signal (z-score),[5],-0.861
same,glycan array binding signal (z-score),[6],1.8
same,glycan array binding signal (z-score),[7],-0.791
same,glycan array binding signal (z-score),[8],-0.296
same,glycan array binding signal (z-score),[9],-0.366
same,glycan array binding signal (z-score),[10],-0.801
same,glycan array binding signal (z-score),[11],-0.587
same,glycan array binding signal (z-score),[12],-0.352
same,glycan array binding signal (z-score),[13],-0.621
same,glycan array binding signal (z-score),[14],-0.597
same,glycan array binding signal (z-score),[15],3.62
same,glycan array binding signal (z-score),[16],-0.643
same,glycan array binding signal (z-score),[17],0.187
same,glycan array binding signal (z-score),Fuc(a1-2)Gal6S(b1-4)Glc,-0.482
same,glycan array binding signal (z-score),[18],2.58
same,glycan array binding signal (z-score),Fuc(a1-2)[Gal(a1-3)]Gal,-0.276
same,glycan array binding signal (z-score),[19],-0.389
same,glycan array binding signal (z-score),[20],-0.196
same,glycan array binding signal (z-score),[21],-0.066
same,glycan array binding signal (z-score),[22],-0.283
same,glycan array binding signal (z-score),[23],0.253
same,glycan array binding signal (z-score),[24],1.39
same,glycan array binding signal (z-score),[25],-0.453
same,glycan array binding signal (z-score),[26],-0.488
same,glycan array binding signal (z-score),[27],-0.034
same,glycan array binding signal (z-score),[28],-0.459
